Measured values published in the RNAGym collection of RNA variant scans (doi:10.7554/elife.90254).
Read counts are not given, so values of variants with three or more changes are uncertain.

B1: LINE1-mini (parent)
chain: GGCAGAGCUCAACACAGCGUGGCAAAGUGGCUGUGGCUAGACUGCC

Variants of: B1
Test: self-cleavage, relative activity (ratio to wild type); higher = more cleavage; in vitro, sequencing; the parent is a self-cleaving ribozyme
In the case of G29C G30U C42U C46U, the self-cleavage is reported as 0.04. U28A G29A C42U gave a self-cleavage of 0.07. In the case of G30A C31G U32A, the self-cleavage is reported as 0.04. G29U U34A C45G showed a self-cleavage of 0.12. U28G G33A G36C showed a self-cleavage of 0.01. Variant G27C G35U C37G A41C G44A has a self-cleavage of 0.05. Work on G30A C31A G44U yielded a self-cleavage of 0. With U28A G29U A39C G44C the self-cleavage was 0.03. With G29U G30U U34A the self-cleavage was 0.06. G30U G36C C37A showed a self-cleavage of 0.03. U34G G35U C46U showed a self-cleavage of 0.02. Work on G33A C42G U43A G44C C45U yielded a self-cleavage of 0.02. In the case of G29A U32C G33U, the self-cleavage is reported as 0.03. For G29U C37G G40A, the self-cleavage was 0.1. For U32G G36U C42A, the self-cleavage was 0.01. G30A G35C C46U gave a self-cleavage of 0.02. Variant U28G G30A U32A G33A A39G has a self-cleavage of 0.05. G27U G30C G33U gave a self-cleavage of 0.06. With U28C G30A G44A the self-cleavage was 0.21. G29A G36C U38C A39C showed a self-cleavage of 0.04. In the case of U32C C37A A41C, the self-cleavage is reported as 0.08. With G33C A41U C45A the self-cleavage was 0.04. U32A C37G A41C gave a self-cleavage of 0.02. C31U U32A U43C showed a self-cleavage of 0.04. With G30C G33A G35U the self-cleavage was 0.32. In the case of U32A G36A A41C, the self-cleavage is reported as 0.08. G27C C37A C45U showed a self-cleavage of 0.05. G29C G33U C37A C46A showed a self-cleavage of 0.02. G27C C31G C46A showed a self-cleavage of 0.02. With C31A C37A C45A the self-cleavage was 0.03. Variant C31U U38C C45U has a self-cleavage of 0.07. In the case of G30U C31G C42A, the self-cleavage is reported as 0.15. G29U U32G G33C showed a self-cleavage of 0.11. Work on G29U G40C C45U yielded a self-cleavage of 0.01. For G27C G29U G30C G40U C46A, the self-cleavage was 0.19. C31A C45G C46G gave a self-cleavage of 0.07. Work on C31G U34C C37A yielded a self-cleavage of 0.04. For G30C G44A C45G, the self-cleavage was 0.47. G27U G35U G40A gave a self-cleavage of 0.05. With C31U G33U U43C the self-cleavage was 0.01. Variant G30A G36C C37U G44U has a self-cleavage of 0.02. G27C U34G U38C showed a self-cleavage of 0.02. With G29C C31U G36A C42U the self-cleavage was 0.01. Work on G30A C31A U43C yielded a self-cleavage of 0.02. U32A U34C G35U gave a self-cleavage of 0.06. For G30C A39C C45A, the self-cleavage was 0.11. Variant C31A U32C G36C U43C has a self-cleavage of 0.05. G27C G29U C31A gave a self-cleavage of 0.75. With C31G G44C C45U the self-cleavage was 0. U32A G33A C46A gave a self-cleavage of 0.1. With G27C G29U C31U G33U C37G the self-cleavage was 0.03. Work on C31A G35A C42G yielded a self-cleavage of 0. For G30A C31A A39U C46A, the self-cleavage was 0.01. Work on G30C G35A C37U G40U yielded a self-cleavage of 0.06. Work on C31A G40C U43G yielded a self-cleavage of 0.03. Work on G27U G29U G35C G44U yielded a self-cleavage of 0.03. In the case of U34A A39G C46U, the self-cleavage is reported as 0.04. Work on U32G U38G G44A yielded a self-cleavage of 0.03. G33C G36A C37G C45G gave a self-cleavage of 0.01. U28C G40U G44U C45U showed a self-cleavage of 0.03. G27C U28A G29A G30A G36U G44C showed a self-cleavage of 0.04. In the case of U28C G30C G33C U38G G40C G44C, the self-cleavage is reported as 0. Work on G30U U34G U43C yielded a self-cleavage of 0.02. With G30A U34G G35A the self-cleavage was 0. For G30A C31U U34A C42G, the self-cleavage was 0.02. For G33U C37G A39U C42U, the self-cleavage was 0.05. G30U C37A U38C gave a self-cleavage of 0.06. G27C U28G C45G showed a self-cleavage of 1.07. With C31A A41G C46A the self-cleavage was 0.03. In the case of G29A G30C C42U, the self-cleavage is reported as 2.18. Variant G29A G30C G35C C37U has a self-cleavage of 0.01. In the case of G27C C31U G44A, the self-cleavage is reported as 0.05. Variant U28A U32C A41G has a self-cleavage of 0.03. C31G G35U C46G showed a self-cleavage of 0. Work on G29A U32G G40A yielded a self-cleavage of 0.02. Work on C31G U38A C46U yielded a self-cleavage of 0.19. Work on G30U U34C C42A yielded a self-cleavage of 0.03. For U32C U34C G44U, the self-cleavage was 0.05. Variant G30A C31G G35A U43C has a self-cleavage of 0.02. G29U G30C C37U gave a self-cleavage of 0.05. With C31G U34G C37G C42A the self-cleavage was 0.02. C31G U34A U43C showed a self-cleavage of 0.08. Variant U32A G40U U43C has a self-cleavage of 0.02. C31A A41G C42U gave a self-cleavage of 0.42. With U32A G36C C45A the self-cleavage was 0.03. U32G U38A A41G gave a self-cleavage of 0.11. For G29U U34A C37A, the self-cleavage was 0.07. With G30C C37U A39C the self-cleavage was 0.08. Work on G27C U38C G44U yielded a self-cleavage of 0.08. Work on G30C G36A G40U C42U yielded a self-cleavage of 0.07. With G27C U32C G35C A41C U43C the self-cleavage was 0.16. Work on C31G G33A G35A U43C yielded a self-cleavage of 0.1. Work on G29U G40U C46U yielded a self-cleavage of 0.11. Work on G33C C42U G44A yielded a self-cleavage of 0.05. U28A A39U C45U showed a self-cleavage of 0.08. With C31G U38C A39G the self-cleavage was 0.03. Work on G27C C31A G33U C37A yielded a self-cleavage of 0.02. Variant C31U G35A C37G has a self-cleavage of 0.07. For C31A G35U C45U, the self-cleavage was 0.05. Work on U32A C42G C46A yielded a self-cleavage of 0.02. Work on C31G U32C G33U yielded a self-cleavage of 0.12. U28A C31U A39U C46A gave a self-cleavage of 0.32. Work on C31A U38A C42A yielded a self-cleavage of 0.12. Work on G30A G35A G40A G44A C45U yielded a self-cleavage of 0.05. For G29A G36C A39U G44U, the self-cleavage was 0.04. With U28C G33C U34A A41C C45A the self-cleavage was 0.06. Work on G29C C31A U34A G44C yielded a self-cleavage of 0.05. C31U A39G U43G gave a self-cleavage of 0.02. In the case of G27C U28A G33U, the self-cleavage is reported as 0.14. U28A G33C C37G G40C gave a self-cleavage of 0.04. U34A G36A U38G gave a self-cleavage of 0.01. With C31G G33U A41U the self-cleavage was 0.11. G33A G36A C37G G44C showed a self-cleavage of 0.02. G30U U32C G36A showed a self-cleavage of 0.03. C31U G33C G44A gave a self-cleavage of 0.11. Variant C31G U34A C46U has a self-cleavage of 0.02. With G27U G29U U34C G35A the self-cleavage was 0.07. For G29U C31G U43C, the self-cleavage was 0.02. G30C C31A U43G C46U gave a self-cleavage of 0.03. Variant U34G C37A C46A has a self-cleavage of 0.02. G27U U43C G44C gave a self-cleavage of 0.16. G30U U38C G40C C46G showed a self-cleavage of 0.03. U34G C42G G44U gave a self-cleavage of 0.04. Work on G27C G29U G30A G33U yielded a self-cleavage of 0.03. Variant G29A C31U G36U G44A has a self-cleavage of 0.03. For U32A A39U C42A, the self-cleavage was 0.05. In the case of G33A U34C A41C, the self-cleavage is reported as 0.05. G30U G33C A39C A41U showed a self-cleavage of 0.02. In the case of U28C G36C U38G, the self-cleavage is reported as 0.02. With C31G G33A C37U the self-cleavage was 0.06. Work on G33C G36A G40A yielded a self-cleavage of 0.05. Work on U28A G30U G44U yielded a self-cleavage of 0.09. Work on C31G G40U C46U yielded a self-cleavage of 0.02. Variant U32G G35C G36A C37U C46G has a self-cleavage of 0.12. With C31A A39C G44U the self-cleavage was 0.06. Variant G30C U32A G44U has a self-cleavage of 0.03. In the case of G27U C37G C45U, the self-cleavage is reported as 0.04. Variant G29C U43G C46U has a self-cleavage of 0.04. Work on G30C C31U G36U yielded a self-cleavage of 0.06. Work on G33U G36A U38G C42G yielded a self-cleavage of 0.03. G33C U43A G44U gave a self-cleavage of 0.07. With C31G U38C G40U the self-cleavage was 0.07. G30A G33U G35A showed a self-cleavage of 0.04. With U28G U32A A41U the self-cleavage was 0.25. Work on G33A U38G C42U C46U yielded a self-cleavage of 0.08. Variant U28C A41G G44C has a self-cleavage of 0.11. Variant C31U G36U G40A has a self-cleavage of 0.09. Work on U28G U38A C46U yielded a self-cleavage of 0.15. With G30C U34G G40U the self-cleavage was 0.06. U28G C31G G40C C46A showed a self-cleavage of 0.03. G33C C37G U38G showed a self-cleavage of 0.06. With C31U A39U A41U the self-cleavage was 0.09. C31A C37G A41G gave a self-cleavage of 0.01. Variant G29C A39U C42A has a self-cleavage of 0. In the case of G29C C31U G44U C45A, the self-cleavage is reported as 0.04. For U28G U32C U34A C42U, the self-cleavage was 0. U28A G36C A41U U43C G44U gave a self-cleavage of 0.04. C31U G36U A39U gave a self-cleavage of 0.07. In the case of G29U C31A U32C, the self-cleavage is reported as 0.03. G29A U38C C45U gave a self-cleavage of 0.36. G27U G33U A39U gave a self-cleavage of 0.03. With G27C U32C G44U the self-cleavage was 0.07. For U28A U32C G36C, the self-cleavage was 0.01. For G30A U38C C46G, the self-cleavage was 0.17. Work on G29A C31U A39U G40U C46U yielded a self-cleavage of 0.03. G29A G36C C37A showed a self-cleavage of 0.13. With U28G U32C U38C G44A the self-cleavage was 0.
